Over roughly 33,000 sequences, “E-score (-0.5 to 0.5)” has its median near -0.021; the highest 2% begin near 0.32. The list shows a part of the results.
Each sequence was assayed against T1, Zap1 (UniProt P47043) (assay: PBM E-score (8-mer binding enrichment) (E-score (-0.5 to 0.5)); higher = stronger / more preferred TF binding; most listed sequences are background and not binding sites). Conditions: protein concentration: 200 nM; construct: GST-full length.
T1 sequence: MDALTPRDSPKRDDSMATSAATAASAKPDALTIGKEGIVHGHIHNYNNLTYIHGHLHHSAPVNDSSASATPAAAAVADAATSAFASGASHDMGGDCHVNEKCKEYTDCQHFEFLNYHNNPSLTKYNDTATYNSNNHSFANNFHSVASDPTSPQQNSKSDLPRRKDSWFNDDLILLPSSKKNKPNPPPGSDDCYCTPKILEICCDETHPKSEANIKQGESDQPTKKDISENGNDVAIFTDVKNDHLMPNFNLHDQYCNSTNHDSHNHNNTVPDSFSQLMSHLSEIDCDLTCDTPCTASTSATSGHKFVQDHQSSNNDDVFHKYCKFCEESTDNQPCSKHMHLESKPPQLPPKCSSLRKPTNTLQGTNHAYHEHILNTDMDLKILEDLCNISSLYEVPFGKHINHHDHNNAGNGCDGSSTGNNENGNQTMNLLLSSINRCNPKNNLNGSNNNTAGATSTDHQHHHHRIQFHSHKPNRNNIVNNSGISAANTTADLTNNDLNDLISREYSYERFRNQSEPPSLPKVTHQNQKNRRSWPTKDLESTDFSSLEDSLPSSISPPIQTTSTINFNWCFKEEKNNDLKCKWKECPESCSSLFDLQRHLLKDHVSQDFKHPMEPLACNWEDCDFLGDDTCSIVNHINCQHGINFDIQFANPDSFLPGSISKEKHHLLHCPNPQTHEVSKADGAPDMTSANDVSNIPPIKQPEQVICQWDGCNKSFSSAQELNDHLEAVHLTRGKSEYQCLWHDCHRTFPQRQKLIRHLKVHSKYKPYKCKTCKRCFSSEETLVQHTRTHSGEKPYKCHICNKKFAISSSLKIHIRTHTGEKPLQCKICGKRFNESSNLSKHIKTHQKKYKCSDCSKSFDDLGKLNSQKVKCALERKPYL
Method in brief: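 Universal all-10-mer Agilent arrays, double-stranded by primer extension on fresh or once-stripped slides, were probed with about 100-200 nM GST-tagged yeast transcription factors made by PURExpress. Fluorescent anti-GST detected bound protein, and masliner normalised the scans. E-scores from the Universal PBM Analysis Suite were given to each ungapped eight-base word pooled with its reverse complement.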

Sequence | PBM E-score
AGTAGTAT | 0.069
GGACGTAC | -0.189
AACTTGAT | 0.171
CACTCCAG | -0.0273
ACAGCAGC | -0.159
CAGCTGAG | -0.16
GATCCATA | -0.00324
ACTGACTC | -0.189
TGCTTGAA | 0.0363
ACCCGGTA | 0.329
GAACGCCA | -0.209
CCTCTTGC | -0.093
GAGGTTCC | 0.223
CTGGGTTA | 0.369
CTGAGGTC | -0.00051
CAAGTGAC | 0.0258
CTGGAAGC | -0.386
CATAGAGC | -0.238
AATGCACC | -0.0326
AAAGCTAT | -0.044
AATTAACC | 0.327
ATAAGAAT | 0.0532
ATACGACA | 0.0572
ACCAGTAA | 0.21
ACATTACA | 0.106

Sequence | PBM E-score
AGCAACGC | -0.00232
AAAGGCCA | 0.132
AGGCGCTC | -0.229
GATGACAA | -0.0225
AAACTGTG | 0.148
GGCCTCAC | 0.019
ATATGCGA | 0.0301
ATCTGCTG | -0.184
CCTTGCAG | 0.0828
TAACTCAA | 0.179
GCGAACAC | -0.146
CTCCCCCA | -0.273
CCAGGGGC | -0.163
CTCACCTC | 0.135
AACGACGG | -0.0791
ACGGAGGA | -0.232
CCACATTA | -0.102
CGCGAGTA | 0.161
CCTCGGGC | 0.00633
CATTGTGA | 0.12
GCAACAAA | 0.219
CGAAGCTA | -0.214
CCGACAGA | 0.17
CGCCTCTA | -0.0576
CCCCACAA | 0.205

Sequence | PBM E-score
ACATTACG | -0.0728
ATGCTTGC | -0.158
CTGTACAG | 0.105
AGGATCCT | 0.0996
CTTTGGGA | -0.0583
CGGCGCCC | -0.232
GAGCTCAA | 0.0476
CGGCTCTC | -0.0676
AGCGGATA | -0.18
ATCGGGGA | 0.0524
CTAACAAG | 0.0748
ACGTTCCT | -0.0976
ACCAAGAG | 0.0448
GGAATACA | 0.127
ACGACCAC | 0.214
AGAGGCGC | -0.335
ACGCCCCT | -0.0421
GGCTAGAA | -0.0341
AGAGTGAA | 0.0257
GCACTGCC | -0.0898
TGAGAAAA | 0.127
CATTTCTC | -0.0308
AACCCCCA | -0.0716
CAGCGGCC | -0.0185
AAACCGAT | 0.0498

Sequence | PBM E-score
ATGTGGTG | 0.0476
CGTTATAG | 0.0032
GCGGCTCA | 0.0986
ACAACAGA | -0.159
ATAGGCAG | -0.173
CGTACTTC | -0.125
ACATATCG | -0.0379
CGCACCTA | -0.074
TACCCGAA | 0.302
GAGGTTCA | 0.254
ATCACCCC | 0.277
AACTTATC | -0.00431
GCGCGTCC | -0.152
CCTAGCCG | -0.191
CTAAAAAC | 0.139
AGCCCAGA | -0.0674
ACGTTAAA | 0.101
AAACTATG | -0.235
CCCTGCGC | -0.156
ACTGATTA | 0.0447
TCGTGTCA | 0.0478
CGTGCTTC | -0.042
CGTTAAAG | 0.141
CCACGTAG | -0.143
AAGGGGCG | -0.209

Sequence | PBM E-score
AAGACCAA | 0.127
GCGCTTCA | -0.0175
GAGACTGC | -0.196
ATTCGCCG | 0.0118
CGCGTAAG | 0.00731
CGACACCA | -0.0859
CAGCGCCA | -0.224
CAATTATC | -0.0722
GTAGCGAA | -0.0439
AGGGTTTA | 0.315
TCTTTAAA | 0.14
ATTGAGGG | 0.0913
AGACTCAC | -0.152
CCGCTCCC | -0.327
ATAAGTAT | -0.0416
CAGGTTAG | 0.212
CTTCGTTA | -0.115
ATATCTAG | 0.0883
CGGCCGCC | 0.066
AATTGTGC | 0.108
CCTATCGA | 0.0826
CGTCAGGC | -0.166
GAGGCCGA | -0.0852
CTCCCACC | -0.157
ACTTTATG | 0.178

Sequence | PBM E-score
CGTCTAGA | -0.0845
TAATAGGA | 0.0672
GCGTACGA | -0.104
CCACGACG | -0.0678
CGTGCTCA | 0.0061
GATGCCAA | -0.174
ATTCCAAA | 0.0335
CGCACTCA | -0.0476
CGATAGAG | -0.236
TGACCACA | 0.165
GGCCGGCA | -0.114
ACTTCTAG | -0.191
AAACATAG | -0.0145
AAGTGCGG | -0.076
CCATTGTC | 0.0194
AGCCGTAG | -0.173
ATTGGGGG | -0.29
ACAATAGA | -0.0361
GCCAGTAA | -0.0458
ACATGTTC | -0.132
ACGGTAGC | 0.116
CTCGCTTC | -0.156
ACATATGG | 0.0536
CTACAACC | 0.284
GGCGCAGA | -0.163

Sequence | PBM E-score
AACGTCGA | 0.0237
CAAACGTG | -0.112
TAGCATAA | 0.0467
CACAATAG | 0.046
GGCCGGAA | 0.079
AAGACGGG | -0.0607
AGACGGAC | -0.0987
GACCGTAA | 0.176
GCATTACC | 0.0693
CAGCAGTA | -0.112
CAGCTCTC | -0.383
TAGGACTA | -0.0609
AAATCTTG | 0.0159
ATCCCCCA | -0.209
ACTGGAAG | -0.176
GCCTAAGC | -0.164
GAACGCCC | 0.0206
AATTTGGC | -0.0234
ACGAGCGC | -0.102
ATGTGATA | 0.0506
AATTACGT | 0.0428
CCACCAGC | -0.101

Source: the supplement of paper PMC3334620
